Measurements taken from PubChem BioAssay AID1508623 (National Center for Advancing Translational Sciences (NCATS), 2021).
Out of some 48,000 compounds screened, about 450 (0.94%) were called active. Not shown: some 19% with an inconclusive outcome. Calls come from the whole dose curve; as a rule, active = well fitted inhibition curve with a large enough effect; inconclusive = small, poorly fitted or top-dose-only effect; inactive = no such curve, though single readings can be large or run the other way. The list shows a part of the results.

Assay: Primary qHTS for Identification of Small Molecule Inhibitors of Huntingtin Promoter Activity; note: nearly all actives have a fitted effect of over 50% in size
Conditions: HEK293 HTT promoter firefly luciferase reporter (activity 0% = vehicle and -100% = no light), 24 h; series mostly up to 57.5 µM; activity change, negative = inhibition: at the top concentration
In short: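 Firefly luciferase readout (Dual-Glo, 10 min RT) after 24 h, 37 °C compound exposure (final up to 57.5 uM) of HEK293 reporter cells cultured 24 h beforehand; PTC124 at 50 uM final as control inhibitor; activity scaled vehicle 0%, zero RLU -100%.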

Activity change, negative = inhibition, inactive:
Cc1cc(N2CCC(C)CC2)nc2ccc(NC(=O)CCC(=O)N3CCN(c4ccccc4F)CC3)cc12 -18.8%
Cc1cccc(-n2nnc(-c3nc(-c4cccs4)no3)c2N)c1 62.2%
Cc1ccc(C)c(CNC(=O)CN2C(=O)CSc3ccc(S(=O)(=O)N(C)C)cc32)c1 -12.9%
O=C1NC2CCCCN2C12CCN(CCCN1c3ccccc3CCc3ccc(Cl)cc31)CC2 (stereo not given) -15.3%
CCc1ccc(NC(=O)Cn2c(=O)n(CCc3ccccc3)c(=O)c3sc4ccccc4c32)cc1 -2.15%
CC(=O)c1cccc(N2C(=O)CN(S(C)(=O)=O)CC2(C)C(=O)NC2CCCC2)c1 (stereo not given) 12.9%
CCn1c(=O)c2cc(C(=O)NCCc3ccc(Cl)cc3)sc2c2ccccc21 6.22%
CCn1c(=O)c2sccc2n2c(CCC(=O)Nc3ccc(C(C)C)cc3)nnc12 -8.47%
Cc1ccc(N(C)C(=O)C2CCN(S(=O)(=O)c3cn(C)cn3)CC2)cc1 -13.9%
COc1ccc(OCC(=O)NC(Cc2c[nH]c3ccccc23)C(=O)O)cc1 (stereo not given) -6.42%
CC1(COc2ccc(CC3SC(=O)NC3=O)cc2)CCCCC1 (stereo not given) 17.4%
CCc1nnc(SC(CC)C(=O)Nc2cc(C)ccc2C)c2cc3occc3n12 (stereo not given) -5.39%
COc1cc(C2c3c(oc4ccccc4c3=O)C(=O)N2Cc2ccc(C)cc2)ccc1O (stereo not given) -9%
CC1CCN(CCCNC(=O)CN2C(=O)CSc3ccc(S(=O)(=O)N4CCOCC4)cc32)CC1 -8.76%
COc1ccc(NC(=O)c2cc3c(=O)n(Cc4cccnc4)ccc3nc2C)c(OC)c1 -1.77%
CN(C)CCc1c[nH]c2ccc(CS(=O)(=O)N3CCCC3)cc12
Cc1ccc2nc3c(cc(C(=O)NCc4ccco4)c(=N)n3C(C)C)c(=O)n2c1 -7.6%
O=C(Nc1ccc(N2CCOCC2)c(C(=O)O)c1)c1ccc(Br)cc1 -2.37%
Cc1cccc(CN2C(=O)c3ccccc3S(=O)(=O)c3ccc(C(=O)NC4CCCCC4)cc32)c1 -7.83%
Cc1cccc2c(=O)cc(CSc3ccccc3NC(=O)C(C)(C)C)[nH]c12 -1.34%
CCOC(=O)c1cc(S(=O)(=O)NCc2ccc(OC)cc2)[nH]n1 -25.4%
CCCC(=O)Nc1ccccc1C(=O)OCc1cc(=O)n2nc(C(C)C)sc2n1 -11.3%
CCC(=O)N1CCCc2cc(S(=O)(=O)N3CCC(C(=O)Nc4ccc(C#N)cc4)CC3)ccc21 -22.6%
CC(=O)c1cccc(NC(=O)Cn2cc(C(=O)c3cccc(Cl)c3)c(=O)c3ccc(C)nc32)c1 -23.4%
COc1ccc(OC)c(S(=O)(=O)N2CCN(Cc3nc4ccc(C)cc4o3)CC2)c1 -0.463%
Cc1cc(C)cc(NC(=O)N2CCN(C(=O)c3nsc4ccccc34)CC2)c1 -9.32%
COC(=O)c1ccc(-n2c(/C=C/c3cc(OC)c(OC)c(OC)c3)nc3cc(Cl)ccc3c2=O)cc1 -28.1%
Cc1ccc(CNC(=O)CCc2nc3cccnc3n2Cc2ccccc2)cc1 -13.7%
CC(=O)Nc1ccc(NC(=O)C(NS(=O)(=O)c2ccc(Br)s2)c2ccccc2)cc1 (stereo not given) -4.17%
COc1cc(NC(=O)Cn2nnnc2-c2ccccc2F)cc(OC)c1OC 1.98%
Cc1ccc(Cn2cc(S(=O)(=O)c3ccc(Cl)cc3)c(=O)c3cc4c(cc32)OCO4)cc1 -26.7%
O=C1CC(=O)Nc2cc(S(=O)(=O)Nc3ccc(F)cc3Cl)ccc2N1 -6.03%
CCOc1ccc2nc(N(Cc3cccnc3)C(C)=O)sc2c1 -2.46%
Cc1ccc(OCCSc2nc3ccc(NC(=O)c4ccco4)cc3s2)cc1 -10.7%
COc1ccc(-c2cc3ccc(O)c(CN4CCCCC4C)c3oc2=O)cc1OC (stereo not given) -4.01%
CC(=O)N1CCc2cc(S(=O)(=O)NC(Cc3ccccc3)C(=O)NCc3ccccc3Cl)ccc21 (stereo not given) -11.1%
CCCc1ccc(OC(C)c2nc(-c3ccc(-n4cccc4)cc3)no2)cc1 (stereo not given) -0.687%
CCOC(=O)C1CCN(C(=O)CSc2n[nH]c(-c3ccc(OC)cc3)n2)CC1 5.34%
Cn1c(=O)n(C)c2cc(N3CCOCC3)c(NS(=O)(=O)c3ccc(Cl)cc3)cc21 -9.84%
Cc1ccc(-n2c(=O)c3c(cnn3C)n(CC(=O)Nc3cccc(C)c3)c2=O)cc1 8.8%
Cc1cc(=O)n(Cc2c(F)cccc2Cl)c2c1c(C)nn2C 0%
CCOC(=O)Cn1c(CN2CCN(c3ccc(OC)cc3)CC2)nc2c1c(=O)[nH]c(=O)n2C -3.04%
COc1ccc(CCNC(=O)Cn2c(-c3ccc(F)cc3)cc(C(C)=O)c2C)cc1OC -23.5%
Cc1ccc(C)c(OC(=O)CSc2nnc(-c3cccs3)o2)c1 4.32%
COc1ccc2c(c1)CC(C(=O)NCCc1ccc(S(N)(=O)=O)cc1)CO2 (stereo not given) -12.7%
CCCC(=O)Nc1cc(-c2nnc3c4ccccc4c(C)nn23)ccc1C 13.4%
COc1ccc(-n2c(=O)c3c(c4cc(OC)ccc4n3C)n(CC(=O)N3CCCC3)c2=O)cc1 -3.76%
CCc1ccc(NC(=O)CCCc2nnc3n(CCCOC)c(=O)c4sccc4n23)cc1 -4.76%
Cc1ccc(NC(=O)C(C)Sc2nc3c(c(=O)[nH]2)CCCC3)cc1Cl (stereo not given) -7.08%
O=C(Cn1cnc2c(nc3n2CCCCC3)c1=O)Nc1cccc(C(F)(F)F)c1 -12.4%
CCOc1ccc(/C=C/c2nc(C#N)c(NCCCN(C)C)o2)cc1 4.82%
COC(=O)c1ccccc1NC(=O)Cn1c(=O)n(CCCC(=O)NCc2ccccc2Cl)c(=O)c2ccccc21 -12.6%
O=C(COc1ccccc1Cl)N(Cc1cccc(F)c1)C1CCS(=O)(=O)C1 (stereo not given) -8.79%
Cc1ccc(Cc2nc3ccccc3nc2SCC(=O)NCc2ccccc2Cl)cc1 -1.07%
CCOC(=O)c1c(NC(=O)COc2ccc(C(C)(C)C)cc2)sc2c1CCCC2 0%
CCc1cccc(CC)c1NC(=O)Cn1nnc2sc3c(c2c1=O)CCCC3 -16.4%
Cc1ccc(NC(=O)c2c(C)nn(-c3ccccc3)c2-n2cccc2)c(Cl)c1 -13.7%
COCCn1c(SCC(=O)c2ccc(F)cc2)nc2cc(C(=O)NC3CCCC3)ccc2c1=O -7.9%
O=C1CC(c2ccc(F)cc2F)c2cc3c(cc2N1)OCO3 (stereo not given) -21.8%
COc1ccc(OC)c(NC(=O)Cn2c(=O)n(-c3ccc(Cl)cc3)c(=O)c3c(C)c(C)sc32)c1 -15.4%
Cc1ccc2c(c1)N(C(=O)CCC(=O)NCc1cccs1)CC(C)O2 (stereo not given) -10%
COC(=O)c1ccccc1NC(=O)Cn1c(CCC(=O)O)ccc1-c1ccc(C)cc1 -5.75%
Cc1cccc(CC(=O)Nc2c(C(=O)Nc3cccc(F)c3)oc3ccccc23)c1 -9.95%
Cc1cc(NC(=O)CSc2ncc(C(=O)Nc3ccc(C)c(C)c3)c(=O)n2C)no1 -0.629%
CC1=C(C(=O)Nc2cccnc2)C(c2ccccc2Cl)n2nc(-c3ccccc3)nc2N1 (stereo not given) -6.48%
Cc1ccc(NC(=O)CCSc2nc(-c3ccc4c(c3)OCO4)cc(C(F)(F)F)n2)c(C)c1 4.32%
CCOc1ccccc1C(=O)NCc1ccc2c(c1)CCN2C(=O)c1ccccc1 -31.2%
Cc1cc(C)c2oc(-c3cccc(NC(=O)COc4ccccc4Cl)c3C)nc2c1 10.1%
CS(=O)(=O)c1ncc(Cl)c(C(=O)Nc2c(C(=O)c3ccc(Cl)cc3)oc3ccccc23)n1 -13.3%
COc1ccc(CCNC(=O)c2ccc(Cn3c(SCC(=O)NCCC(C)C)nc4cc5c(cc4c3=O)OCO5)cc2)cc1OC -13.5%
Cc1ccc2nc(CN3CCN(S(=O)(=O)c4ccc(C)c(C)c4)CC3)oc2c1 1.55%
O=C(Nc1ccc2oc(-c3ccc4ccccc4c3)nc2c1)c1cc(Cl)ccc1Cl -19.2%
CC(=O)c1c(C)n(-c2ccc(C)cc2)c2ccc(OC(=O)COc3ccccc3)cc12 -25.7%
Cc1ccc(C2CC(=O)n3nc(-c4cccc(C)c4)nc3S2)cc1 (stereo not given) 8.93%
CN(C)c1ccc(CNC(=O)C2CCN(S(=O)(=O)c3ccc4[nH]c(=O)ccc4c3)CC2)cc1 -2.74%
COc1cc(-c2ccno2)ccc1S(=O)(=O)N1CCN(c2ccccc2)CC1 -16.8%
CC(C)C(=O)Nc1nnc(SCc2cc(=O)n3ccccc3n2)s1 -3.75%
CCNc1sc(S(C)(=O)=O)nc1S(=O)(=O)c1ccc(C)cc1 -21.5%
CCCCc1nn2c(=O)cc(COC(=O)c3cccs3)nc2s1 19.2%
Cc1ccc(Cn2c(=O)n(Cc3ccccc3Cl)c(=O)c3cccnc32)cc1 -3.62%
Cn1c(=O)n(C)c2cc(N3CCCC3)c(NC(=O)Nc3ccccc3)cc21 10.7%
CCc1ccc(NC(=O)CCNC(=O)Cn2cnc3ccccc3c2=O)cc1 -6.79% [at 11.5 µM]
Cc1ccc(CNC(=O)c2cccc(Nc3nc4ccccc4n4nnnc34)c2)cc1 19.4%
COC(=O)c1ccccc1NC(=O)Cn1c(=O)n(CCCCC(=O)NCc2ccc3c(c2)OCO3)c(=O)c2ccccc21 -2.68%
COc1cc(OC)c(NC(=O)c2c(C)oc3ncnc(N4CCCCC4)c23)cc1Cl 11.3%
Cc1ccc(N2CCN(c3nc4ccccc4c4nnc(C)n34)CC2)c(C)c1 -0.868%
Cn1c(=O)c2c(nc(N3CCOCC3)n2Cc2ccccc2)n(C)c1=O -4.94%
Cc1cccc(C)c1NC(=O)Cn1cc(S(=O)(=O)Cc2ccc(F)cc2)c2ccccc21 -19.5%
Cc1cc(C)cc(NC(=O)Cn2c(=O)n(CC(=O)NCCc3ccccc3)c(=O)c3ccccc32)c1 -8.94%
COc1ccc(C(=O)Nc2nnc(SCc3cc(=O)n4cc(Cl)ccc4n3)s2)cc1 28.7%
Cc1ccc(CNC(=O)CN2C(=O)COc3ccccc32)cc1 34.4%
Cc1noc(-c2ccc(-c3noc(-c4ccccc4)n3)cc2)n1 37%
CCC(C(=O)NCc1ccc2c(c1)CCN2C(=O)c1ccc(F)cc1)c1ccccc1 (stereo not given) -6.39%
CCOC(=O)c1cc(-c2ccc(C)cc2)n(CCC(=O)Nc2cc(Cl)ccc2C)c1C 6.57%
CC(=O)c1cc(-c2ccccc2)n(CCC(=O)Nc2nc3c(C)cccc3s2)c1C -15.8%
